Results taken from ChEMBL document CHEMBL5606460, “ASAP - DENV-2 NS2B-NS3 protease fluorescence single point” (2024).
The whole screen tested about 2,000 compounds, of which about 110 (5.5%) showed an effect of 50% or more. Some of the results follow. Residues, ends and D or L forms follow the SMILES beside them. *: point of attachment. pNA = O=[N+]([O-])c1ccc(N*)cc1

Target: Genome polyprotein (dengue virus type 2) (UniProt P29990)
[1] = Thailand/16681/1984, Concentration 25.0 uM, Number of replicates 1.0

Question: `Cc1cc(CO)c2cccc(Cc3cccc(NC(=O)[C@@H](N)CC(N)=O)c3)c2n1` was tested. Which inhibition (Thailand/16681/1984, Concentration 49.95 uM, Number of replicates 2.0, Standard deviation 1.6450461196958641 %) did it give?
Answer: Its inhibition is 12.4%.

Question: And the inhibition (Thailand/16681/1984, Concentration 99.9 uM, Number of replicates 2.0, Standard deviation 0.8834505440552805 %)?
Answer: Its inhibition is 30%.

Question: With `NCc1cccc(CNC(=O)[C@@H](NC(=O)OCc2ccccc2)c2ccc(OCc3ccccc3)cc2)c1` as the molecule, how does the inhibition (Thailand/16681/1984, Concentration 49.5 uM, Number of replicates 2.0, Standard deviation 0.05305782465339428 %) read?
Answer: The inhibition was 100%.

Question: And the inhibition (Thailand/16681/1984, Concentration 99.01 uM, Number of replicates 2.0, Standard deviation 0.03132758391075349 %)?
Answer: Its inhibition is 99.6%.

Question: And the inhibition (Thailand/16681/1984, Concentration 198.0 uM, Number of replicates 2.0, Standard deviation 0.04155072348555595 %)?
Answer: The inhibition was 99.5%.

Question: Which results are given for `NC(=O)c1ccccc1NS(=O)(=O)c1ccc(Oc2ccccc2Cl)cc1`?
Answer: inhibition (Thailand/16681/1984, Concentration 49.5 uM, Number of replicates 2.0, Standard deviation 0.6673279112123895 %): 5.67%; inhibition (Thailand/16681/1984, Concentration 99.01 uM, Number of replicates 2.0, Standard deviation 2.0636931261780913 %): 38.8%; inhibition (Thailand/16681/1984, Concentration 198.0 uM, Number of replicates 2.0, Standard deviation 0.3870011295715193 %): 81.3%

Question: For `Cn1cc(NC(=O)c2ccccc2C(F)(F)F)c(-c2ccc(CO)cc2)n1`, which inhibition (Thailand/16681/1984, Concentration 49.5 uM, Number of replicates 2.0, Standard deviation 2.3161186941047496 %) is on record?
Answer: Its inhibition is -4.04%.

Question: What about the inhibition (Thailand/16681/1984, Concentration 99.01 uM, Number of replicates 2.0, Standard deviation 3.5021876776391307 %) of the same molecule?
Answer: Its inhibition is -2.8%.

Question: And the inhibition (Thailand/16681/1984, Concentration 198.0 uM, Number of replicates 2.0, Standard deviation 4.667974048773386 %)?
Answer: Its inhibition is -3.05%.

Question: How did the inhibition (Thailand/16681/1984, Concentration 49.5 uM, Number of replicates 2.0, Standard deviation 0.9447421770337631 %) turn out when `CSCC[C@H](N)C(=O)N1CCC[C@H]1C(=O)Nc1ccc([N+](=O)[O-])cc1` (H-Met-Pro-pNA) was run?
Answer: Its inhibition is 6.96%.

Question: What about the inhibition (Thailand/16681/1984, Concentration 99.01 uM, Number of replicates 2.0, Standard deviation 0.9399016957759839 %) of the same molecule?
Answer: Its inhibition is 14.5%.

Question: And the inhibition (Thailand/16681/1984, Concentration 198.0 uM, Number of replicates 2.0, Standard deviation 0.15884978616361917 %)?
Answer: The inhibition was 27.1%.

Question: Which results are given for `Cc1ccccc1-c1noc(C)c1C(=O)N1CCC(n2cc(CO)nn2)CC1`?
Answer: inhibition (Thailand/16681/1984, Concentration 49.5 uM, Number of replicates 2.0, Standard deviation 2.30419273755641 %): -0.938%; inhibition (Thailand/16681/1984, Concentration 99.01 uM, Number of replicates 2.0, Standard deviation 2.46249596338854 %): -1.41%; inhibition (Thailand/16681/1984, Concentration 198.0 uM, Number of replicates 2.0, Standard deviation 2.8430635029754168 %): -1.49%

Question: How did the inhibition [1] turn out when `O=Cc1ccc(N2CCC(C(=O)N3CCN(c4ncccc4[N+](=O)[O-])CC3)CC2)cc1` was run?
Answer: Its inhibition is 14.8%.

Question: Which inhibition [1] does the source give for `NC(=O)c1c(NC(=O)C2CCN(c3ccc(C=O)cc3)CC2)sc2c1CCCC2` here?
Answer: Its inhibition is 38.6%.

Question: `C[C@H](NC(=O)C1CCN(c2ccc(C=O)cc2)CC1)c1cccc2ccccc12` was tested. Which inhibition [1] did it give?
Answer: The inhibition was 4.86%.

Question: For `CC(C)Cn1cccc(C(=O)Nc2ccncc2)c1=O`, which inhibition (Thailand/16681/1984, Concentration 49.5 uM, Number of replicates 2.0, Standard deviation 1.6949837288603 %) is on record?
Answer: The inhibition was 4.6%.

Question: And the inhibition (Thailand/16681/1984, Concentration 99.01 uM, Number of replicates 2.0, Standard deviation 0.80587134576346 %)?
Answer: Its inhibition is 8.75%.

Question: And the inhibition (Thailand/16681/1984, Concentration 198.0 uM, Number of replicates 2.0, Standard deviation 0.4281674737986559 %)?
Answer: The inhibition was 16%.

Question: Which results are given for `Cc1cc(CO)c2cccc(Cc3ccccc3C(=O)N[C@@H](C)C(N)=O)c2n1`?
Answer: inhibition (Thailand/16681/1984, Concentration 49.95 uM, Number of replicates 2.0, Standard deviation 0.6000743957777985 %): -0.871%; inhibition (Thailand/16681/1984, Concentration 99.9 uM, Number of replicates 2.0, Standard deviation 0.19044272663259726 %): 7.93%

Question: How did the inhibition [1] turn out when `O=Cc1ccc(N2CCC(C(=O)Nc3cccc4ccc(O)cc34)CC2)cc1` was run?
Answer: Its inhibition is 35.2%.

Question: How did the inhibition [1] turn out when `O=Cc1ccc(N2CCC(C(=O)N3CC(Oc4ccc(Cl)cc4)C3)CC2)cc1` was run?
Answer: The inhibition was 0.197%.

Question: `O=Cc1ccc(N2CCC(C(=O)NCc3ccc(Cl)cc3F)CC2)cc1` was tested. Which inhibition [1] did it give?
Answer: The inhibition was 9.63%.

Question: How did the inhibition (Thailand/16681/1984, Concentration 49.5 uM, Number of replicates 2.0, Standard deviation 0.13681414935666844 %) turn out when `CCn1ccnc(N[C@@H](Cc2c[nH]c3ccccc23)C(=O)NCc2ccccc2)c1=O` was run?
Answer: The inhibition was 1.31%.

Question: What about the inhibition (Thailand/16681/1984, Concentration 99.01 uM, Number of replicates 2.0, Standard deviation 0.09232570623620616 %) of the same molecule?
Answer: The inhibition was 2.85%.

Question: What about the inhibition (Thailand/16681/1984, Concentration 198.0 uM, Number of replicates 2.0, Standard deviation 0.24588269116382727 %) of the same molecule?
Answer: Its inhibition is 6.39%.

Question: Which inhibition [1] does the source give for `O=Cc1ccc(N2CCC(C(=O)N3CCc4cc(Cl)ccc4C3)CC2)cc1` here?
Answer: Its inhibition is 9.95%.

Question: Which results are given for `COc1cc(COCc2c(F)cccc2F)nc(N2CCNCC2)n1`?
Answer: inhibition (Thailand/16681/1984, Concentration 49.5 uM, Number of replicates 2.0, Standard deviation 2.0165327414494323 %): -0.373%; inhibition (Thailand/16681/1984, Concentration 99.01 uM, Number of replicates 2.0, Standard deviation 2.63299741441039 %): -0.319%; inhibition (Thailand/16681/1984, Concentration 198.0 uM, Number of replicates 2.0, Standard deviation 2.6878044175706832 %): 0.43%

Question: Which inhibition [1] does the source give for `CC(C)[C@H](NC(=O)C1CCN(c2ccc(C=O)cc2)CC1)c1ccccn1` here?
Answer: Its inhibition is 12.8%.

Question: How did the inhibition [1] turn out when `COc1ncc(Br)cc1NC(=O)C1CCN(c2ccc(C=O)cc2)CC1` was run?
Answer: The inhibition was 12.1%.

Question: With `COC(=O)c1cncc(NC(=O)c2cc(OC)nc(N3CCNCC3)n2)c1` as the molecule, how does the inhibition (Thailand/16681/1984, Concentration 49.5 uM, Number of replicates 2.0, Standard deviation 2.371083495065868 %) read?
Answer: The inhibition was -3.19%.

Question: What about the inhibition (Thailand/16681/1984, Concentration 99.01 uM, Number of replicates 2.0, Standard deviation 3.1714143372962753 %) of the same molecule?
Answer: Its inhibition is -2.14%.

Question: And the inhibition (Thailand/16681/1984, Concentration 198.0 uM, Number of replicates 2.0, Standard deviation 2.985770498250333 %)?
Answer: Its inhibition is 0.713%.

Question: How did the inhibition [1] turn out when `CC(C)n1cnnc1CCNC(=O)C1CCN(c2ccc(C=O)cc2)CC1` was run?
Answer: The inhibition was 13.3%.

Question: With `CCC(CC)N1CCN(C(=O)C2CCN(c3ccc(C=O)cc3)CC2)CC1` as the molecule, how does the inhibition [1] read?
Answer: Its inhibition is 11.3%.

Question: With `CCCOc1cccc(CCNC(=O)C2CCN(c3ccc(C=O)cc3)CC2)c1` as the molecule, how does the inhibition [1] read?
Answer: The inhibition was 13.4%.

Question: What does the source list for `COc1ccc(S(=O)(=O)Nc2ccc(C(=O)O)cc2)cc1`?
Answer: inhibition (Thailand/16681/1984, Concentration 49.5 uM, Number of replicates 2.0, Standard deviation 0.5608325188005179 %): -0.09%; inhibition (Thailand/16681/1984, Concentration 99.01 uM, Number of replicates 2.0, Standard deviation 0.8121146005802272 %): 1.54%; inhibition (Thailand/16681/1984, Concentration 198.0 uM, Number of replicates 2.0, Standard deviation 0.1170568025928226 %): 2.41%

Question: With `COc1cc(CS(=O)(=O)C[C@H]2CCCO2)nc(N2CCNCC2)n1` as the molecule, how does the inhibition (Thailand/16681/1984, Concentration 49.5 uM, Number of replicates 2.0, Standard deviation 0.1164714250138548 %) read?
Answer: Its inhibition is -0.916%.

Question: What about the inhibition (Thailand/16681/1984, Concentration 99.01 uM, Number of replicates 2.0, Standard deviation 0.21498230770958018 %) of the same molecule?
Answer: The inhibition was -1.32%.

Question: What about the inhibition (Thailand/16681/1984, Concentration 198.0 uM, Number of replicates 2.0, Standard deviation 0.7717593724526828 %) of the same molecule?
Answer: The inhibition was -1.59%.

Question: What does the source list for `COc1ccc(S(=O)(=O)N[C@H]2CC[C@@H](C(=O)Nc3nc4ccccc4s3)CC2)cc1`?
Answer: inhibition (Thailand/16681/1984, Concentration 49.5 uM, Number of replicates 2.0, Standard deviation 0.7840545353939778 %): -2%; inhibition (Thailand/16681/1984, Concentration 99.01 uM, Number of replicates 2.0, Standard deviation 0.5713843195000082 %): 0.764%; inhibition (Thailand/16681/1984, Concentration 198.0 uM, Number of replicates 2.0, Standard deviation 0.49249915896022917 %): 0.948%

Question: With `CCc1ccc(-c2nc3c(C(=O)Nc4ccc5c(c4)CNC5)cc(Cl)cc3[nH]2)cc1` as the molecule, how does the inhibition (Thailand/16681/1984, Concentration 99.5 uM, Number of replicates 2.0, Standard deviation 0.07636874080258764 %) read?
Answer: Its inhibition is 91.5%.

Question: What about the inhibition (Thailand/16681/1984, Concentration 295.6 uM, Number of replicates 2.0, Standard deviation 0.5542721932424032 %) of the same molecule?
Answer: The inhibition was 83.9%.
